Measurements reported in publication PMC4336329 (PLoS ONE, 2015).
Screen size: about 310,000 compounds; about 14,000 (4.5%) showed an effect of 50% or more. Effects have a minus sign here. The list shows a part of the results.

The molecules below were run against human ether-à-go-go-related gene (hERG) potassium channel (human, UniProt Q12809) (assay: primary screen, population patch clamp on CHO cells stably expressing hERG).
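Also: peak tail current of the secondary pulse compared with the same well before compound.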

human ether-à-go-go-related gene (hERG) potassium channel, sequence (Q12809 whole entry, looked up): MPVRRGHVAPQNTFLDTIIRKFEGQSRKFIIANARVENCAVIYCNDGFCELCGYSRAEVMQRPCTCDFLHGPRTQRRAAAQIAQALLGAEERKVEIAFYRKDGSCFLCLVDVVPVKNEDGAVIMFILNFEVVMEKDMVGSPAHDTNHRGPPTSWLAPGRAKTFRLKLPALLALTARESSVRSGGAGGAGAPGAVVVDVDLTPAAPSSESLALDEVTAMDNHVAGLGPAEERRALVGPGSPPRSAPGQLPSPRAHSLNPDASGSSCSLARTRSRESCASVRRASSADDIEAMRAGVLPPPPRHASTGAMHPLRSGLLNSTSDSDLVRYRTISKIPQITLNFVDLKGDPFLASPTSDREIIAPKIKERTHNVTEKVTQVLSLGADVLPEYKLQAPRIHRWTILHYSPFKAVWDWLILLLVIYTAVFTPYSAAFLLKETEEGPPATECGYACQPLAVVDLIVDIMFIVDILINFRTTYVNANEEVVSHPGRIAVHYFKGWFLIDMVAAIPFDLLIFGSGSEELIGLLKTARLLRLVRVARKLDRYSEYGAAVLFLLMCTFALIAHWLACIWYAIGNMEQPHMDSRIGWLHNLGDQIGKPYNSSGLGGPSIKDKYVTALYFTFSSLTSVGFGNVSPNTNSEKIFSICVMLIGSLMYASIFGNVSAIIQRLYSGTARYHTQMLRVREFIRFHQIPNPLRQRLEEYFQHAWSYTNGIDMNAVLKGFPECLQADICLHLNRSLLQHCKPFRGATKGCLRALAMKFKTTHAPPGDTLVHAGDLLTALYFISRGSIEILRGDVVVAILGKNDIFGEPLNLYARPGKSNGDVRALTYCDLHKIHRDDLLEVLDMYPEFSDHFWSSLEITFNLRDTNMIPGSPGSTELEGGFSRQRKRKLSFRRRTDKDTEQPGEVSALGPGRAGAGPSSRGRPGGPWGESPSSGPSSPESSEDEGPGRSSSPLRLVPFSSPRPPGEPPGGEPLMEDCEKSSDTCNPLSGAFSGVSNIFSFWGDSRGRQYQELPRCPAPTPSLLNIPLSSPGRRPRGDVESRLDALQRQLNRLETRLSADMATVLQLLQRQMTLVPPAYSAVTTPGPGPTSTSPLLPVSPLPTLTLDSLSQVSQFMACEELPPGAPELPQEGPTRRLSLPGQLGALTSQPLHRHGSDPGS

SMILES | hERG current change (%, negative = inhibition) at 10uM
CCc1ccc(C2C(C#N)=C(N)N(N(C)C)C3=C2C(=O)CCC3)s1 (stereo not shown) | -21.7%
O=C(Nc1nccs1)c1ccc(N2C(=O)C3CCCCC3C2=O)cc1 (stereo not shown) | 16.7%
CC[N+]1(C)[C@@H]2CC[C@H]1CC(OC(=O)[C@H]1CCC(C(=O)OC3C[C@H]4CC[C@@H](C3)[N+]4(C)CC)(c3ccccc3)c3ccccc31)C2.[Cl-] (stereo partly shown) | 9.41%
O=C(NCCc1ccccc1)c1ccc([N+](=O)[O-])cc1 | -17.4%
COC(=O)c1sccc1NC(=O)c1ccnn1C | 16.9%
Cc1cc(-n2cnnn2)cc(C)c1S(=O)(=O)NCCOc1ccccc1 | -38.5%
O=C(NCCc1ccc(Cl)cc1)c1ccc2nc[nH]c2c1 | -1.98%
O=S1(=O)CC(O)C(Nc2ccccc2)C1 (stereo not shown) | -0.706%
COc1ccc2[nH]c(=O)cc(C(=O)O)c2c1 | 0.994%
CN(C)c1nn(C(=O)Nc2cccc(C(F)(F)F)c2)cc1-c1ccccc1 | 5.64%
O=C(CCCn1cc([N+](=O)[O-])cn1)N1CCCCC1 | 11.2%
CCn1c(SCC(=O)N2CCN(c3ccc(F)cc3)CC2)nc2ccccc2c1=O | -45.2%
CCN(CC)CCOC(=O)c1ccc2c(c1)OCCO2.Cl | -11.4%
C(=Nc1ccc(N2CCOCC2)cc1)c1c[nH]c2ccccc12 | 14%
Cc1ccc(S(=O)(=O)N(C)c2ccc(OC(=O)c3ccc(=O)[nH]c3)cc2)cc1 | -28.7%
O=C1/C(=C/c2cccs2)Sc2ccccc21 | 8.58%
CC1CCCCC1NC(=O)c1cncc(Br)c1 (stereo not shown) | 11.4%
CC(=O)Cn1ncc(N2CCCCC2)c(Cl)c1=O | 17.8%
O=C(Nc1nnc(S(=O)(=O)N2CCCC2)s1)c1ccccc1F | 14.7%
CC1CCCN(C(=O)c2cccc(S(=O)(=O)Nc3cc(C(F)(F)F)ccc3Cl)c2)C1 (stereo not shown) | 13.4%
CC(C)CNC1=CC(=O)CC(c2ccco2)C1 (stereo not shown) | 6.11%
CC1=NN(c2ccccc2)C(=O)C1(C)C | 19.5%

SMILES | hERG current change (%, negative = inhibition) at 10uM
COc1ccc(N2C(=O)CSC2c2cccc(F)c2)c(OC)c1 (stereo not shown) | 12.1%
Nc1nonc1-n1nnc(C(=O)N/N=C/c2cccc(Cl)c2)c1-c1ccc2c(c1)OCO2 | 13.4%
Cc1c(C(=O)N2CCC3(CC2)OCCO3)oc2ccccc12 | -8.31%
CCOC(=O)N1CCN(C(=O)C(C)n2nc(C)n3c(cc4sccc43)c2=O)CC1 (stereo not shown) | -4.51%
Cc1ccc(S(=O)(=O)CCC(=O)OCC(=O)N2CCN(S(=O)(=O)c3ccccc3)CC2)cc1 | 22.6%
CCOC(=O)c1c(CN2CCN(c3ccccc3)CC2)oc2ccc(O)cc12 | -4.3%
O=C(N/N=C/c1cccc(O)c1)c1ccc(COc2cccc3cccnc23)cc1 | 22.8%
COc1ccccc1CC(=O)NN1C(=O)c2ccccc2C1=O | 9.7%
Cc1noc2ncnc(Sc3ccc(Cl)cc3)c12 | 16.3%
O=C(COc1ccc(Cl)cc1)NNC(=O)CSc1nncs1 | 8.43%
COc1cccc(CN2CCN(S(=O)(=O)c3ccccc3)CC2)c1OC | -4.11%
CCOc1ccc2[nH]c(C(=O)N/N=C/c3cc(OC)c(OC)c(OC)c3)cc2c1 | 18.3%
Cc1cc(Cl)ccc1OCCCC(=O)NCc1cccs1 | -5.7%
O=S(=O)(NC(=NCc1ccccc1)c1ccccc1)c1ccccc1 | 12.6%
O=C(CCl)Nc1cccc(Oc2cnccn2)c1 | 7.22%
COC(=O)c1cnn2c1C(=O)N(Cc1cccs1)CC2 | 24.3%
CNC(C(=O)c1ccccc1)C(OC)c1ccccc1.[O-][Cl+3]([O-])([O-])O (stereo not shown) | 6.4%
Cc1nn(C)c(C)c1CN(C(=O)CCc1nnc(Cc2c[nH]c3ccccc23)o1)C(C)C | -0.0383%
COc1cc(NC(=O)c2ccccc2)c(OC)cc1NC(=O)Cc1cccs1 | 7.34%
CN(Cc1ccccc1)S(=O)(=O)c1cn(C)cn1 | -3.93%
Cc1occc1-c1nnc(SCC(=O)Nc2nc(C(C)(C)C)cs2)o1 | -4.25%
COCCn1c(=NC(=O)c2cccs2)sc2cc(NC(C)=O)ccc21 | -8.04%

SMILES | hERG current change (%, negative = inhibition) at 10uM
Cc1noc(C)c1S(=O)(=O)Nc1ccc(C(=O)N2CCCCC2)cc1 | -2.71%
Cc1c(C(=O)N2CCC3(CC2)OCCO3)sc2ncnc(N3CCc4ccccc4C3)c12 | -33.7%
C[C@@H]1C(=O)O[C@H]2C[C@@]34[C@H]5C[C@@H](C(C)(C)C)[C@]36[C@@H](OC(=O)[C@@H]6O)O[C@@]4(C(=O)O5)[C@]21O | 21%
COc1ccc(C(C)NC(=O)c2ccncc2)cc1 (stereo not shown) | 10.6%
Cc1ccc(NC(=O)OCc2cn(-c3ccc(Cl)cc3)nn2)cc1 | -14.3%
Cc1c(NC(=O)CSc2nnc3sc4ccccc4n23)c(=O)n(-c2ccccc2)n1C | 6.99%
Cc1ccccc1NC(=O)c1ccccc1NC(=O)Cc1cccc2ccccc12 | 16.6%
O=C(O)c1ccc(Cl)cc1NC(=O)C1CCCO1 (stereo not shown) | -2.58%
COc1ccc(NC(=O)C(NC(=O)c2ccc(C)cc2)c2ccccc2)cc1 (stereo not shown) | 14.3%
CCCNC(=O)c1c[nH]c2ccc(S(=O)(=O)N(C)c3ccc(OCC)cc3)cc2c1=O | 12%
C=CCc1c(C)nc2ccc(C(=O)OCC)cc2c1Cl | 18.3%
N#Cc1cc([N+](=O)[O-])ccc1NC(=O)CSc1n[nH]c(=O)n1C1CC1 | 1.42%
Cn1nc(C(F)(F)F)c(C#N)c1N1CCN(c2ccccn2)CC1 | -28.7%
COc1ccc2c(c1)N1CCN=C1N2C.Cl | -4.02%
CCOC(=O)c1cc(-c2nnc(-c3cc(OC)c(OC)c(OC)c3)o2)c(C)nc1C | -3.04%
CCOC(=O)Cc1csc(NC(=O)c2c(-c3ccccc3)noc2C)n1 | -10.1%
CCOC(=O)c1nnn2c1nc(N1CCN(c3ccccc3)CC1)c1ccccc12 | -62.4%
CCOC(=O)C1CCCN(C/C=C/c2ccccc2)C1 (stereo not shown) | -24.5%
O=C(CSc1nc(=O)n2ccccc2n1)NCc1ccc2c(c1)OCO2 | -37.8%
CCOc1ccc(CCNC(=O)C2CC(=O)N(CCc3ccc(OC)c(OC)c3)C2)cc1OCC (stereo not shown) | -4.11%
CN(C)C1=NC[C@H](Cc2ccccc2)N1CC1CCCC1 | -16.9%
CC(=C/c1ccco1)/C=N/NC(=O)c1ccncc1 | 12.4%

SMILES | hERG current change (%, negative = inhibition) at 10uM
CCNC(=S)NNC(=O)c1cc(-c2ccc(OCC)cc2)nc2ccccc12 | -2.22%
N/C(=N\N=C\c1ccc(O)cc1O)N[N+](=O)[O-] | 9.87%
CCOc1ccc(N(CC(=O)NCc2ccccc2Cl)S(=O)(=O)c2c(C)[nH]c(=O)[nH]c2=O)cc1 | 7.75%
N#CC1=C(N)Oc2[nH]c(=S)[nH]c(=O)c2C12C(=O)Nc1ccccc12 (stereo not shown) | 15.1%
C=CCN(c1ccccc1C(=O)NCC(=O)O)S(=O)(=O)c1ccc(C)cc1 | 13%
O=C(NCc1ccccn1)C1CCN(S(=O)(=O)c2ccc(Br)cc2)CC1 | -26.8%
COc1ccc(CNC(=O)c2sc3nc4c(c(C(F)(F)F)c3c2N)CCC4)cc1 | 11.7%
CCOC(=O)CC(NS(=O)(=O)c1ccc(NC(C)=O)cc1)c1ccc(OCC)cc1 (stereo not shown) | -3.92%
Cc1cc(C)n(CC(O)COc2ccc(C(C)(C)C)cc2)n1 (stereo not shown) | 4.37%
COc1cc2c(cc1OC)CN(CC(=O)Nc1ccc(C#N)cc1)CC2 | -63.1%
N#C/C(=C\c1cccnc1)C(=O)Nc1cccc2ccccc12 | -3.47%
CC(=O)c1ccc(NC(=O)c2ccc(CSc3ccccc3)o2)cc1 | -8.11%
O=C1[C@@H]2C(c3ccccc3Cl)=NO[C@@H]2C(=O)N1Cc1ccccc1 | 6.11%
COc1cc(Cl)c(S(=O)(=O)N2CC(C)OC(C)C2)cc1Cl (stereo not shown) | 7.68%
O=C(CSc1nc(Cc2ccccc2)nc2ccccc12)Nc1ccc2c(c1)OCCO2 | -15.5%
CCCc1nc2c(c(=O)c3ccccc3n2C)c(=O)n1C1CCCCCC1 | -10.1%
CCn1ncc(Br)c1C(=O)Nc1ccn(C23CC4CC(CC(C4)C2)C3)n1 | 12%
O=C(NCCc1ccncc1)Nc1ccc(F)cc1 | 1.45%
Cc1ccc2nc(C)cc(C(=O)OCC(=O)Nc3c(C)n(C)n(-c4ccccc4)c3=O)c2c1 | -9.41%
Cc1nc(C)c(C(=O)Nc2cccc(Cl)c2)o1 | -11.3%
OCCN1CCN(C(=S)c2ccc(Cl)c(Cl)c2)CC1 | -5.55%
O=C(OCC(=O)C12CC3CC(CC(C3)C1)C2)c1ccccn1 | -6.62%
